# This is one part of the list.
# B1: T7P4 (Tuber borchii) (protein)
# chain: GSHIGPYMSFYASSEDVRTIEEGGRTWLVGRARRADGSWQDIKLDLDNIIGNRDGHLTWGEQNFTQSASDIRFNFEGSNVPVLRAKLRNAAGGEQESDLNLGERLTNNNGDLVFN
# Experiments:
# Experiment in all cases: glycan array binding signal (z-score within array); higher = stronger binding
# Details in all cases: glycan notation: IUPAC condensed, linker removed
# [1] = target: Fuc(a1-3)[Gal3S(b1-4)]GlcNAc
# Outline: (§1)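 Glycan array data were curated from 3228 arrays in the Consortium for Functional Glycomics database and kept only where the protein sequence was available. Glycan names were converted to IUPAC-condensed notation, and columns mapping to the same glycan were averaged. The binding signal is a within-array Z-score, averaged across arrays of the same protein sequence at different concentrations or buffers and across linkers. Negative Z-scores can be read as non-binding.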
# [2] = target: Fuc(a1-3)[GalNAc(b1-4)]Gal(b1-4)GlcNAc
# Outline: as §1
# [3] = target: Fuc(a1-3)[GalNAc(b1-4)]GlcNAc
# Outline: as §1
# Fuc(a1-4)GlcNAc = target: Fuc(a1-4)GlcNAc
# Outline: as §1
# Fuc(b1-3)GlcNAc = target: Fuc(b1-3)GlcNAc
# Outline: as §1
# Gal(a1-2)Gal = target: Gal(a1-2)Gal
# Outline: as §1
# Gal(a1-3)Gal = target: Gal(a1-3)Gal
# Outline: as §1
# Gal(a1-3)Gal(b1-3)Glc = target: Gal(a1-3)Gal(b1-3)Glc
# Outline: as §1
# Gal(a1-3)Gal(b1-3)GlcNAc = target: Gal(a1-3)Gal(b1-3)GlcNAc
# Outline: as §1
# Gal(a1-3)Gal(b1-4)Glc = target: Gal(a1-3)Gal(b1-4)Glc
# Outline: as §1
# Gal(a1-3)Gal(b1-4)GlcNAc = target: Gal(a1-3)Gal(b1-4)GlcNAc
# Outline: as §1
# [4] = target: Gal(a1-3)Gal(b1-4)[Fuc(a1-3)]GalNAc
# Outline: as §1
# [5] = target: Gal(a1-3)Gal(b1-4)[Fuc(a1-3)]GlcNAc
# Outline: as §1
# Gal(a1-3)GalNAc = target: Gal(a1-3)GalNAc
# Outline: as §1
# Gal(a1-3)GlcNAc = target: Gal(a1-3)GlcNAc
# Outline: as §1
# [6] = target: Gal(a1-3)[Gal(a1-4)]Gal(b1-4)GlcNAc
# Outline: as §1
# Gal(a1-4)Gal(b1-4)Gal = target: Gal(a1-4)Gal(b1-4)Gal
# Outline: as §1
# Gal(a1-4)Gal(b1-4)GalNAc = target: Gal(a1-4)Gal(b1-4)GalNAc
# Outline: as §1
# Gal(a1-4)Gal(b1-4)Glc = target: Gal(a1-4)Gal(b1-4)Glc
# Outline: as §1
# Gal(a1-4)Gal(b1-4)GlcNAc = target: Gal(a1-4)Gal(b1-4)GlcNAc
# Outline: as §1
# Gal(a1-4)GlcNAc = target: Gal(a1-4)GlcNAc
# Outline: as §1
# Gal(a1-6)Glc = target: Gal(a1-6)Glc
# Outline: as §1
# Gal(b1-2)Gal = target: Gal(b1-2)Gal
# Outline: as §1
# Gal(b1-3)Gal = target: Gal(b1-3)Gal
# Outline: as §1
# Gal(b1-3)GalNAc = target: Gal(b1-3)GalNAc
# Outline: as §1
# [7] = target: Gal(b1-3)GalNAc(b1-3)Gal(a1-4)Gal(b1-4)Glc
# Outline: as §1
# [8] = target: Gal(b1-3)GalNAc(b1-3)Gal(b1-4)Glc
# Outline: as §1
# [9] = target: Gal(b1-3)GalNAc(b1-3)Gal(b1-4)GlcNAc
# Outline: as §1
# [10] = target: Gal(b1-3)GalNAc(b1-4)Gal(b1-4)Glc
# Outline: as §1
# [11] = target: Gal(b1-3)GalNAc(b1-4)[Neu5Ac(a2-3)]Gal(b1-4)Glc
# Outline: as §1
# Gal(b1-3)GlcNAc = target: Gal(b1-3)GlcNAc
# Outline: as §1
# [12] = target: Gal(b1-3)GlcNAc(b1-3)Gal(b1-4)Glc
# Outline: as §1
# [13] = target: Gal(b1-3)GlcNAc(b1-3)Gal(b1-4)GlcNAc
# Outline: as §1
# [14] = target: Gal(b1-3)[Fuc(a1-4)]GlcNAc
# Outline: as §1
# [15] = target: Gal(b1-3)[Fuc(a1-4)]GlcNAc(b1-3)Gal(b1-4)GlcNAc
# Outline: as §1
# [16] = target: Gal(b1-3)[Fuc(a1-4)]GlcNAc(b1-3)Gal(b1-4)[Fuc(a1-3)]GlcNAc
# Outline: as §1
# [17] = target: Gal(b1-3)[GlcNAc(b1-6)]GalNAc
# Outline: as §1
# [18] = target: Gal(b1-3)[GlcNAc(b1-6)]GlcNAc
# Outline: as §1
binder,measurement,setting,value
B1,glycan array binding signal (z-score),[1],-0.217
same,glycan array binding signal (z-score),[2],-0.022
same,glycan array binding signal (z-score),[3],-0.027
same,glycan array binding signal (z-score),Fuc(a1-4)GlcNAc,-0.222
same,glycan array binding signal (z-score),Fuc(b1-3)GlcNAc,-0.115
same,glycan array binding signal (z-score),Gal(a1-2)Gal,-0.218
same,glycan array binding signal (z-score),Gal(a1-3)Gal,-0.214
same,glycan array binding signal (z-score),Gal(a1-3)Gal(b1-3)Glc,-0.222
same,glycan array binding signal (z-score),Gal(a1-3)Gal(b1-3)GlcNAc,-0.193
same,glycan array binding signal (z-score),Gal(a1-3)Gal(b1-4)Glc,-0.222
same,glycan array binding signal (z-score),Gal(a1-3)Gal(b1-4)GlcNAc,-0.221
same,glycan array binding signal (z-score),[4],-0.207
same,glycan array binding signal (z-score),[5],-0.208
same,glycan array binding signal (z-score),Gal(a1-3)GalNAc,-0.216
same,glycan array binding signal (z-score),Gal(a1-3)GlcNAc,-0.215
same,glycan array binding signal (z-score),[6],-0.171
same,glycan array binding signal (z-score),Gal(a1-4)Gal(b1-4)Gal,0.23
same,glycan array binding signal (z-score),Gal(a1-4)Gal(b1-4)GalNAc,-0.172
same,glycan array binding signal (z-score),Gal(a1-4)Gal(b1-4)Glc,0.218
same,glycan array binding signal (z-score),Gal(a1-4)Gal(b1-4)GlcNAc,-0.173
same,glycan array binding signal (z-score),Gal(a1-4)GlcNAc,-0.219
same,glycan array binding signal (z-score),Gal(a1-6)Glc,-0.214
same,glycan array binding signal (z-score),Gal(b1-2)Gal,-0.226
same,glycan array binding signal (z-score),Gal(b1-3)Gal,-0.089
same,glycan array binding signal (z-score),Gal(b1-3)GalNAc,-0.205
same,glycan array binding signal (z-score),[7],-0.05
same,glycan array binding signal (z-score),[8],5.7
same,glycan array binding signal (z-score),[9],-0.217
same,glycan array binding signal (z-score),[10],-0.223
same,glycan array binding signal (z-score),[11],-0.221
same,glycan array binding signal (z-score),Gal(b1-3)GlcNAc,-0.179
same,glycan array binding signal (z-score),[12],5.55
same,glycan array binding signal (z-score),[13],-0.217
same,glycan array binding signal (z-score),[14],-0.22
same,glycan array binding signal (z-score),[15],-0.207
same,glycan array binding signal (z-score),[16],-0.218
same,glycan array binding signal (z-score),[17],-0.221
same,glycan array binding signal (z-score),[18],-0.216

# Reference: the supplement of paper PMC8728848
